# About 50,000 (12%) of roughly 420,000 compounds were called active. This list was built around the results that the source calls inconclusive (neither active nor inactive); the mix of calls is not that of the screen. Calls follow the shape of the dose curve; as a rule, active = well fitted inhibition curve with a large enough effect; inconclusive = small, poorly fitted or top-dose-only effect; inactive = flat fitted curve, though single readings scatter. No potency is given beside an inconclusive call; the fits are too rough.
# Assay: qHTS for Inhibitors of human tyrosyl-DNA phosphodiesterase 1 (TDP1): qHTS in cells in presence of CPT; also: nearly all actives have a fitted effect of over 55% in size
# Settings: chicken DT40 Tdp1-/-;hTDP1 cells + 20 nM CPT, ATP luminescence, 48 h; activity change, negative = growth inhibition: at 46.2 µM (top of the series) unless noted
# Outline: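 Chicken DT40 Tdp1-/- cells complemented with human TDP1, 400 cells/well, exposed to compounds plus 20 nM camptothecin for at least 48 h at 37 C; viability read as ATP content by CellTiter-Glo luminescence.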
# % is scaled to controls: 0 for no effect and ±100 for the full control effect; potency is read from the fitted curve at half-maximal effect; tags tell the direction and shape of the fitted curve.
Compound,Potency,"activity change, negative = growth inhibition"
CCC(NC(=O)CNC(=O)CNC(=O)c1ccc(Cl)cc1Cl)c1ccc(C)cc1 (stereo unspecified),"inconclusive [inhibitor, partial curve]",
CCN(C(=O)c1cc2c(=O)n3ccccc3nc2s1)C1CCCCC1,"inconclusive [inhibitor, single point]",
CSc1ccc(C2=CC(=O)C[C@H](c3ccc4c(c3)OCO4)C2)cc1,"inconclusive [inhibitor, single point]",
CCOc1ccc(NC(=O)CN2C(=O)CSC2=O)cc1,,inactive: -9%
C=CCNC(=S)NNC(=O)CCC(O)CCCCC (stereo unspecified),active: 14.6 µM,
O=C(CN1CCC(n2nnc3cc(C(F)(F)F)ccc32)CC1)Nc1ccc2c(c1)CCC2,"inconclusive [inhibitor, single point]",
Cc1c(Br)c(O)c(Br)c(O)c1/C=N/n1c(-c2ccccc2)n[nH]c1=S,,inactive: 7.58%
O=C(O)c1cccnc1Nc1ccc(Cl)cc1,"inconclusive [inhibitor, partial curve]",
CCCCN(C(=O)c1cc2c(s1)CCCCC2)c1c(N)n(CC(C)C)c(=O)[nH]c1=O,,inactive: -1.79%
CCOc1ccc(C2C(C(=O)Nc3ccccc3)=C(C)Nc3nc(-c4ccccc4)nn32)cc1OC (stereo unspecified),"inconclusive [inhibitor, partial curve]",
O=C(NNC(=O)c1ccccc1O)c1cc2ccccc2o1,"inconclusive [inhibitor, single point]",
CN1CCN(C(CNS(=O)(=O)c2ccc([N+](=O)[O-])cc2)c2ccc(F)cc2)CC1 (stereo unspecified),"inconclusive [inhibitor, single point]",
O=C1CCc2cc(S(=O)(=O)NCCC(=O)N3CCN(c4cccc(Cl)c4)CC3)ccc2N1,active: 25.9 µM,
COCCNC(=S)N(CCc1c(C)[nH]c2ccc(C)cc12)Cc1ccco1,"inconclusive [inhibitor, single point]",
O=C(CN1CCN(S(=O)(=O)c2ccc(Br)cc2)CC1)Nc1ccc2c(c1)OCCO2,,inactive: -5.01%
CSc1ncccc1C(=O)OCC(=O)NCc1ccccc1,,inactive: -3.85%
COc1ccc(-c2cn3c(n2)sc2cc(C(=O)NCCC4=CCCCC4)ccc23)cc1,"inconclusive [inhibitor, partial curve]",
C[C@H](CO)N1C[C@H](C)[C@@H](CN(C)C(=O)c2ccccc2)OCc2cnnn2CCCC1=O,,inactive: 4.49%
COc1ccc(Cl)cc1NC(=O)c1cccc(S(=O)(=O)Nc2c(C)n(C)n(-c3ccccc3)c2=O)c1,,inactive: -23.8%
COc1ccc(Nc2c(-c3ccc(C)cc3)nc3cnccn23)cc1,"inconclusive [inhibitor, single point]",
CC(=O)Nc1ccc2c(COC(=O)[C@@H](NS(=O)(=O)c3ccc(C)cc3)C(C)C)cc(=O)oc2c1,,inactive: 0.858%
CCCCn1c(N)c(N(CC(C)C)C(=O)CC2CCCC2)c(=O)[nH]c1=O,,inactive: -1.96%
O=C(NCc1ccccc1)c1cc(C2CCCN(C(=O)c3ccc4c(c3)CCO4)C2)on1 (stereo unspecified),"inconclusive [inhibitor, single point]",

Compound,Potency,"activity change, negative = growth inhibition"
COC(=O)[C@]1(C)N[C@H](CN(C)S(=O)(=O)c2ccc(OC(F)(F)F)cc2)[C@@H]2C(=O)N(C)C(=O)[C@@H]21,,inactive: 8.68%
Cc1ccc(Nc2nnns2)cc1,,inactive: -22.3%
Nc1[nH]c(C(=O)c2ccccc2)c(-c2ccccc2Br)c1C(=O)NCCc1c[nH]c2ccccc12,active: 16.4 µM,
CCOC(=O)N1CCN(c2ncc(C(F)(F)F)cc2Cl)CC1,,inconclusive: -34% [inhibitor]
CN(C(=O)CN(C)S(=O)(=O)c1ccc(F)cc1)c1c(N)n(Cc2ccccc2)c(=O)[nH]c1=O,,inactive: 14.2%
c1ccc(C(c2ccccc2)c2noc(CN3CCN(C4CCCC4)CC3)n2)cc1,"inconclusive [inhibitor, single point]",
CCS(=O)(=O)N1CCCC(C(=O)NCCCOC)C1 (stereo unspecified),,inactive: 1.44%
CCC(c1nnnn1-c1c(C)cccc1C)N1CCN(c2ccccn2)CC1 (stereo unspecified),"inconclusive [inhibitor, single point]",
Cc1cc(C(=O)COc2ccccc2Cl)c(C)n1-c1ccc2c(c1)OCO2,"inconclusive [inhibitor, partial curve]",
COc1ccc(NC(=O)CCCn2c(=O)oc3ccccc32)cc1Cl,,inactive: -2.56%
S=c1[nH]nc(Cc2cccc3ccccc23)n1-c1ccccc1,"inconclusive [inhibitor, single point]",
O=C(Nc1ccc(Nc2ccccc2)cc1)c1c(Cl)cccc1Cl,"inconclusive [inhibitor, single point]",
Cc1c(C(=O)Nc2ccc(F)cc2F)oc2c1-c1nn(Cc3c(F)cccc3Cl)cc1CC2,"inconclusive [inhibitor, single point]",
Cn1c2ccccc2c2cc(C(=O)NNC(=O)CCl)sc21,active: 3.66 µM,
Cc1ccc(/C=C/C(=O)NCC2COc3ccccc3O2)o1 (stereo unspecified),active: 16.4 µM,
O=C(NC1CC(=O)N(c2ccc(F)cc2)C1)C1CCCC1 (stereo unspecified),,inactive: 3.63%
COc1cccc(OCC(O)CN2CCN(C(c3ccccc3)c3ccccc3)CC2)c1 (stereo unspecified),"inconclusive [inhibitor, single point]",
O=C(NCCN1CCN(c2ccccc2F)CC1)c1ccc2nc3ccccc3c(=O)n2c1,"inconclusive [inhibitor, single point]",
COc1ccccc1-c1nc2ccccc2n(CC(C)C)c1=O,"inconclusive [inhibitor, single point]",
CCOC(=O)Cc1nnc(NC(=O)CCc2ccccc2)s1,,inactive: 3.3%
CCOc1cc(NC(=O)c2ccco2)c(OCC)cc1NC(=O)Cc1cccc(OC)c1,"inconclusive [inhibitor, single point]",
C/C(=N\NC(=O)c1nnn(-c2nonc2N)c1CN1CCCCC1)c1ccccc1O,active: 10.3 µM,
Cc1cc(C(=O)CN2CCCC2)c(C)n1-c1ccc(Cl)cc1,"inconclusive [inhibitor, single point]",

# Reference: PubChem BioAssay AID686979 (National Center for Advancing Translational Sciences (NCATS), 2013)
